# Data as given in the supplement of paper PMC4604168 (melanoma cell lines).
# The other results are listed elsewhere or left out. Repeats are few or missing, and single values can be far off.
# Tested on: WM1716
# Assay: cell count relative to DMSO control; melanoma cells; higher = more viable cells
# Conditions: library dose: standard library concentration; 72 h
# 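Also: cells treated in 1,536-well plates, then fixed and DAPI-stained, with nuclei counted from automated high-throughput microscope images.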
row,Compound,cell count [%]
1,"NC(=O)c1ccc(N(C(N)=O)c2c(F)cccc2F)nc1-c1ccc(F)cc1F + O=C1NC(=O)/C(=C/c2ccc(-c3ccc(F)cc3O)o2)S1 [AS252424] (first compound 2 µM, partner dose 5 µM)",118
2,"NC(=O)c1ccc(N(C(N)=O)c2c(F)cccc2F)nc1-c1ccc(F)cc1F + COc1ccc(COc2ccc(Cc3cnc(N)nc3N)cc2OC)cc1 [GW2580] (first compound 2 µM, partner dose 5 µM)",104
3,"NC(=O)c1ccc(N(C(N)=O)c2c(F)cccc2F)nc1-c1ccc(F)cc1F + O=C(O)C(=O)Nc1sc2c(c1C(=O)O)CCNC2 [TCS401] (first compound 2 µM, partner dose 8.33333 µM)",93.3
4,"CC(C)(C)c1cnc(CSc2cnc(NC(=O)C3CCNCC3)s2)o1 + CC(C)CCN1c2nc(Nc3cc(F)c(O)c(F)c3)ncc2N(C)C(=O)C1C [BID1870] (first compound 0.05 µM, partner dose 1 µM)",77.3
5,"COc1cc2c(Oc3ccc4[nH]c(C)cc4c3F)ncnc2cc1OCCCN1CCCC1 [cediranib] + COc1ccc(-c2ccc3c(N4CCOCC4)nc(N4C[C@@H](C)O[C@@H](C)C4)nc3n2)cc1CO [KU0063794] (first compound 2 µM, partner dose 0.1 µM)",81.7
6,"CCc1ccc(CCOc2ccc(CC3SC(=O)NC3=O)cc2)nc1 (stereo not given) [pioglitazone] + Cn1cc(/C=C2\C(=O)Nc3cccnc32)c2ccccc21 [GW441756] (first compound 10 µM, partner dose 2 µM)",118
7,"NC(=O)c1ccc(N(C(N)=O)c2c(F)cccc2F)nc1-c1ccc(F)cc1F + O=c1cc(-c2cccc3c2Sc2ccccc2S3)oc(N2CCOCC2)c1 [KU55933] (first compound 2 µM, partner dose 5 µM)",103
8,"CN(NC(=O)CC(=O)NN(C)C(=S)c1ccccc1)C(=S)c1ccccc1 + CCc1ccc(CCOc2ccc(CC3SC(=O)NC3=O)cc2)nc1 [pioglitazone] (first compound 0.03 µM, partner dose 10 µM)",74.8
9,"NC(=O)c1ccc(N(C(N)=O)c2c(F)cccc2F)nc1-c1ccc(F)cc1F + c1cc(-c2cnn3cc(-c4ccc(OCCN5CCCCC5)cc4)cnc23)ccn1 [Dorsomorphin] (first compound 2 µM, partner dose 2 µM)",82.1
10,"Cc1ccc(NC(=O)c2cccc(N(C)C)c2)cc1NC(=O)c1ccc(O)cc1 + COc1ccc(-c2ccc3c(N4CCOCC4)nc(N4C[C@@H](C)O[C@@H](C)C4)nc3n2)cc1CO [KU0063794] (first compound 10 µM, partner dose 0.1 µM)",98.2
11,"NC(=O)c1ccc(N(C(N)=O)c2c(F)cccc2F)nc1-c1ccc(F)cc1F + CCN(CC)CCCCNc1ncc2cc(-c3cc(OC)cc(OC)c3)c(NC(=O)NC(C)(C)C)nc2n1 [PD173074] (first compound 2 µM, partner dose 0.5 µM)",120
12,"CCCCCCCCc1ccc(CCC(N)(CO)CO)cc1 [fingolimod] + Oc1nc(-c2ccc(C(F)(F)F)cc2)nc2c1CSCC2 [XAV939] (first compound 10 µM, partner dose 10 µM)",37.2
13,"NC(=O)c1ccc(N(C(N)=O)c2c(F)cccc2F)nc1-c1ccc(F)cc1F + COc1cc2ncnc(Nc3ccc(Oc4ccccc4)cc3)c2cc1OC [SrcI1] (first compound 2 µM, partner dose 10 µM)",75.8
14,"CCCCCCCCc1ccc(CCC(N)(CO)CO)cc1 [fingolimod] + Oc1cc(-c2nc(-c3ccccc3)[nH]c2-c2ccncc2)ccc1Cl [L779450] (first compound 10 µM, partner dose 1 µM)",35.6
15,"NC(=O)c1ccc(N(C(N)=O)c2c(F)cccc2F)nc1-c1ccc(F)cc1F + Oc1cc(-c2nc(-c3ccccc3)[nH]c2-c2ccncc2)ccc1Cl [L779450] (first compound 2 µM, partner dose 1 µM)",83.9
16,"COc1cc2c(Oc3ccc4[nH]c(C)cc4c3F)ncnc2cc1OCCCN1CCCC1 [cediranib] + COC(=O)c1sccc1S(=O)(=O)Nc1ccc(Nc2ccccc2)cc1OC [GSK0660] (first compound 2 µM, partner dose 5 µM)",83.3
17,"NC(=O)c1ccc(N(C(N)=O)c2c(F)cccc2F)nc1-c1ccc(F)cc1F + Cc1cc([N+](=O)[O-])ccc1NS(=O)(=O)c1cc(Cl)ccc1Cl [FH535] (first compound 2 µM, partner dose 5 µM)",81.7
18,"Cc1ccc(NC(=O)c2cccc(N(C)C)c2)cc1NC(=O)c1ccc(O)cc1 + N#Cc1c(O)c2c(-c3ccc(-c4ccccc4O)cc3)csc2[nH]c1=O [A769662] (first compound 10 µM, partner dose 10 µM)",100

row,Compound,cell count [%]
1,"NC(=O)c1ccc(N(C(N)=O)c2c(F)cccc2F)nc1-c1ccc(F)cc1F + COc1cc(N2CCC(N3CCN(C)CC3)CC2)ccc1Nc1ncc(Cl)c(Nc2ccccc2S(=O)(=O)C(C)C)n1 [NVP-TAE684] (first compound 2 µM, partner dose 0.4 µM)",97.7
2,"CCc1ccc(CCOc2ccc(CC3SC(=O)NC3=O)cc2)nc1 (stereo not given) [pioglitazone] + COc1ccc2c(c1)CCC1C2CCC2(C)C(NCCCCCCN3C(=O)C=CC3=O)CCC12 [U73122] (first compound 10 µM, partner dose 2 µM)",64.6
3,"NC(=O)c1ccc(N(C(N)=O)c2c(F)cccc2F)nc1-c1ccc(F)cc1F + COc1ccc2c(c1)CCC1C2CCC2(C)C(NCCCCCCN3C(=O)C=CC3=O)CCC12 [U73122] (first compound 2 µM, partner dose 2 µM)",71.6
4,"NC(=O)c1ccc(N(C(N)=O)c2c(F)cccc2F)nc1-c1ccc(F)cc1F + O=S(=O)(c1ccccc1)N(CC(F)(F)F)c1ccc(C(O)(C(F)(F)F)C(F)(F)F)cc1 [T0901317] (first compound 2 µM, partner dose 7 µM)",93.3
5,"CCCCCCCCc1ccc(CCC(N)(CO)CO)cc1 [fingolimod] + Cc1cc([N+](=O)[O-])ccc1NS(=O)(=O)c1cc(Cl)ccc1Cl [FH535] (first compound 10 µM, partner dose 5 µM)",45.2
6,"CCCCCCCCc1ccc(CCC(N)(CO)CO)cc1 [fingolimod] + COc1ccc2c(c1)CCC1C2CCC2(C)C(NCCCCCCN3C(=O)C=CC3=O)CCC12 [U73122] (first compound 10 µM, partner dose 2 µM)",47.3
7,"NC(=O)c1ccc(N(C(N)=O)c2c(F)cccc2F)nc1-c1ccc(F)cc1F + COC(=O)c1sccc1S(=O)(=O)Nc1ccc(Nc2ccccc2)cc1OC [GSK0660] (first compound 2 µM, partner dose 5 µM)",114
8,"CCCCCCCCc1ccc(CCC(N)(CO)CO)cc1 [fingolimod] + Cc1cc(Nc2cc(N3CCN(C)CC3)nc(/C=C/c3ccccc3)n2)n[nH]1 [ENMD2076] (first compound 10 µM, partner dose 0.2 µM)",37.5
9,"NC(=O)c1ccc(N(C(N)=O)c2c(F)cccc2F)nc1-c1ccc(F)cc1F + COc1ccc(-c2ccc3c(N4CCOCC4)nc(N4C[C@@H](C)O[C@@H](C)C4)nc3n2)cc1CO [KU0063794] (first compound 2 µM, partner dose 0.1 µM)",94
10,"CCCCCCCCc1ccc(CCC(N)(CO)CO)cc1 [fingolimod] + O=S(=O)(c1ccccc1)N(CC(F)(F)F)c1ccc(C(O)(C(F)(F)F)C(F)(F)F)cc1 [T0901317] (first compound 10 µM, partner dose 7 µM)",46.7
11,"CCCCCCCCc1ccc(CCC(N)(CO)CO)cc1 [fingolimod] + c1cc(-c2cnn3cc(-c4ccc(OCCN5CCCCC5)cc4)cnc23)ccn1 [Dorsomorphin] (first compound 10 µM, partner dose 2 µM)",43.3
12,"CC(C)(C)c1cnc(CSc2cnc(NC(=O)C3CCNCC3)s2)o1 + NCC(=O)Nc1ccc(-n2nc(C(F)(F)F)cc2-c2ccc3c(ccc4ccccc43)c2)cc1 [OSU03012] (first compound 0.05 µM, partner dose 5 µM)",80.2
13,"NC(=O)c1ccc(N(C(N)=O)c2c(F)cccc2F)nc1-c1ccc(F)cc1F + O=C(Nc1ccccc1)c1cc([N+](=O)[O-])ccc1Cl [GW9662] (first compound 2 µM, partner dose 10 µM)",102
14,"CCCCCCCCc1ccc(CCC(N)(CO)CO)cc1 [fingolimod] + N#Cc1c(O)c2c(-c3ccc(-c4ccccc4O)cc3)csc2[nH]c1=O [A769662] (first compound 10 µM, partner dose 10 µM)",19.1
15,"CCCCCCCCc1ccc(CCC(N)(CO)CO)cc1 [fingolimod] + CC(C)CCN1c2nc(Nc3cc(F)c(O)c(F)c3)ncc2N(C)C(=O)C1C [BID1870] (first compound 10 µM, partner dose 1 µM)",55.5
16,"NC(=O)c1ccc(N(C(N)=O)c2c(F)cccc2F)nc1-c1ccc(F)cc1F + N#Cc1c(O)c2c(-c3ccc(-c4ccccc4O)cc3)csc2[nH]c1=O [A769662] (first compound 2 µM, partner dose 10 µM)",113
17,"CCCCCCCCc1ccc(CCC(N)(CO)CO)cc1 [fingolimod] + O=C(O)c1ccc(-c2c[nH]c3ncc(-c4ccccc4)cc23)cc1C1CCCC1 [GSK650394] (first compound 10 µM, partner dose 0.8 µM)",15.2
